# In all, about 280,000 compounds went through this assay and about 100 (0.036%) were called active. The shares of active, inactive and inconclusive entries below differ from those in the screen. Calls come from the whole dose curve; as a rule, active = well fitted inhibition curve with a large enough effect in the signal ratio, with a control signal flat (not every such curve was filed as active); inconclusive = small, poorly fitted or top-dose-only effect, or effect the other way, or a change in a side signal; inactive = no such curve, though single readings can be large or run the other way; the % refers to the signal ratio. Potencies beside an inconclusive call are fits to weak or partial responses and may not hold up. “Side channel” marks fits to a control or component signal instead of the main read-out.
# Biological target: Muscleblind-like protein 1 (Homo sapiens) (UniProt Q9NR56)
# Assay: qHTS Assay for Inhibitors of MBNL1-poly(CUG) RNA binding
# Settings: TR-FRET MBNL1-His/biotin-(CUG)12 binding, 665/545 ratio; activity change, negative = inhibition: at 57.5 µM (top of the series)
# Method in brief: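 Inhibition of protein-RNA binding appears as loss of TR-FRET between terbium anti-His antibody on MBNL1-His and streptavidin-XL665 on biotin-(CUG)12. Activity is normalized to buffer-only and uninhibited-complex controls.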
# % is set by controls: 0 for no effect and ±100 for the full control effect; potency is the fitted concentration of half-maximal effect; tags give direction and shape of the fitted curve or compound fluorescence and quenching.
# Sequence of UniProt Q9NR56 (Q9NR56 whole entry, looked up): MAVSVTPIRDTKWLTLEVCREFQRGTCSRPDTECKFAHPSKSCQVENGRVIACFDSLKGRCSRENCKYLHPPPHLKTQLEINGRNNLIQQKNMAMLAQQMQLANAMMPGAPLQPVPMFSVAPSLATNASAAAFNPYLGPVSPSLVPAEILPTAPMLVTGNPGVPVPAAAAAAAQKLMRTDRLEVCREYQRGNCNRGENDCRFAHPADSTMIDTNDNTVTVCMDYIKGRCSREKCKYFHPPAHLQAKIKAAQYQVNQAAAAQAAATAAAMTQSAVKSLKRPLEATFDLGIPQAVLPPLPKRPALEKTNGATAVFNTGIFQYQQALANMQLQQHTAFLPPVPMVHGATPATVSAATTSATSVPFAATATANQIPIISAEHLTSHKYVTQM
Compound,Potency,"activity change, negative = inhibition"
CC(=NCc1ccncc1)C1=C(O)c2ccccc2C1=O,"inconclusive: 25.1 µM [quencher, side channel, partial curve]",–
N#Cc1c(N)n(-c2ccc(O)cc2)c2nc3ccccc3nc12,"inconclusive: 14.1 µM [quencher, side channel, partial curve]",–
O=C1c2ccccc2-c2nc3ncnn3c(-c3ccccc3Cl)c21,"inconclusive: 3.16 µM [quencher, side channel, full curve]",–
Cc1ccc(/C=C/c2ccc3cccc(O)c3n2)s1,"inconclusive: 28.2 µM [quencher, side channel, single point]",–
CC1CC1C(=O)Nc1nc2ccc(S(C)(=O)=O)cc2s1 (configuration not stated),–,inactive: -0.902%
CCn1c(SCC(=O)N/N=C/C=C\c2ccco2)nc2ccccc21,–,inactive: 15.4%
COc1ccc(/C=C2\CCc3ccccc3C2=O)cc1OC,"inconclusive: 11.2 µM [quencher, side channel, partial curve]",–
CCOC(=O)C1CCN(Cc2nc3ccc([N+](=O)[O-])cc3c(=O)n2-c2ccc(OC)cc2OC)CC1,"inconclusive: 14.1 µM [quencher, side channel, partial curve]",–
CC(C)c1ccc(C2CC(c3ccc(Br)cc3)=NN2C(N)=S)cc1 (configuration not stated),–,inactive: 4.38% [at 11.5 µM]
CC(=O)Nc1cccc(NC(=O)C(=O)c2cn(CC(=O)N3CCCCC3)c3ccccc23)c1,"inconclusive: 25.1 µM [quencher, side channel, partial curve]",–
COc1ccc(CC(=O)N(C)Cc2ccc(C(C)(C)C)cc2)cc1S(=O)(=O)N1CCOCC1,"inconclusive: 8.91 µM [quencher, side channel, full curve]",–
O=C1c2cccnc2C(=O)N1Cc1ccc2c(c1)OCO2,"inconclusive: 11.2 µM [quencher, partial curve]",–
Cc1cccn2c(=O)c3cc(C(=O)NCc4ccco4)c(=N)n(CCc4ccccc4)c3nc12,"inconclusive: 20 µM [quencher, partial curve, poor fit]",–
COC(=O)CSc1ccc(S(=O)(=O)N2CCCCCC2)cc1[N+](=O)[O-],"inconclusive: 3.55 µM [quencher, side channel, full curve, poor fit]",–
O=C(CCN1C(=O)c2ccccc2C1=O)C1=NN[C@@H]2C(=O)N(c3cccc(F)c3)C(=O)[C@H]12,"inconclusive: 15.8 µM [quencher, side channel, partial curve]",–
O=C(CCNC(=O)Cn1ccc2ccccc2c1=O)NCCCN1CCN(c2ccccc2F)CC1,–,inactive: -6.9%
COc1cc(/C=C(\NC(=O)c2ccccc2)C(=O)NCC(=O)O)c([N+](=O)[O-])cc1OC,"inconclusive: 11.2 µM [quencher, side channel, partial curve]",–
COC(=O)c1cc(C(=O)OCC(=O)N(C)c2ccccc2)cc([N+](=O)[O-])c1,"inconclusive: 6.31 µM [quencher, side channel, partial curve]",–
O=C(NCC1CCCO1)c1ccc(Oc2ccc([N+](=O)[O-])cc2Cl)cc1 (configuration not stated),"inconclusive: 14.1 µM [quencher, side channel, partial curve]",–

Compound,Potency,"activity change, negative = inhibition"
CCN1CCc2c(sc(NC(=O)c3ccc4ccccc4c3)c2C(N)=O)C1,"inconclusive: 14.1 µM [quencher, side channel, partial curve]",–
CCOc1ccc(S(=O)(=O)N2CCOCC2)cc1NC(=O)CN1C(=O)NC(CC)(c2ccccc2)C1=O (configuration not stated),–,inactive: -2.96%
Cc1nc2ccccc2n1C(=O)c1ccc(Cl)cc1[N+](=O)[O-],"inconclusive: 39.8 µM [quencher, side channel, single point]",–
Cc1c(C)c2ccc(OCC(=O)NCCCn3ccnc3)c(C)c2oc1=O,"inconclusive: 12.6 µM [quencher, side channel, partial curve]",–
Cn1c(=O)n(C)c2cc([N+](=O)[O-])c(N3CCN(C(=O)C(C)(C)C)CC3)cc21,"inconclusive: 11.2 µM [quencher, side channel, partial curve]",–
O=C(O)c1cccc(NC(=O)c2ccc3c(c2)C(=O)N(C2CCCCC2)C3=O)c1,"inconclusive: 8.91 µM [quencher, side channel, full curve]",–
Cc1cc(NC(=O)c2ccc(Br)c([N+](=O)[O-])c2)no1,–,inactive: 18%
COC(=O)c1c(NC(=S)Nc2ccc(F)cc2[N+](=O)[O-])sc2c1CCCCC2,"inconclusive: 12.6 µM [quencher, side channel, single point]",–
CCOc1ncccc1C(=O)Nc1ccc2nc(C)sc2c1,"inconclusive: 28.2 µM [fluorescent, side channel, single point]",–
O=C(O)CCSc1nnc(COc2ccc([N+](=O)[O-])cc2)n1-c1ccccc1,"inconclusive: 20 µM [quencher, side channel, partial curve]",–
Cc1ccc(N=Cc2ccc(N(C)C)cc2)cc1,"inconclusive: 22.4 µM [quencher, side channel, single point]",–
Cc1ccc2sc(NNC(=O)c3ccc4c(c3)OCCO4)nc2c1C,"inconclusive: 100 µM [inhibitor, single point]",–
CS/C(=N\S(=O)(=O)c1cccs1)Nc1ccc(F)c(Cl)c1,"inconclusive: 200 µM [inhibitor, partial curve]",–
Cc1cc(NC(=O)/C=C/c2ccco2)ccc1NC(=O)c1ccccc1,"inconclusive: 25.1 µM [inhibitor, single point]",–
CN(C(=O)c1ccccc1[N+](=O)[O-])c1ccccc1C(=O)NCc1ccccc1,"inconclusive: 25.1 µM [quencher, side channel, partial curve]",–
Cc1ccc(NC(=O)N(Cc2nc3ccccc3c(=O)[nH]2)Cc2cccs2)cc1,"inconclusive: 0.251 µM [fluorescent, side channel, partial curve]",–
Cc1c([N+](=O)[O-])c(C(=O)Nc2ccc3c(c2)OCCO3)nn1C,"inconclusive: 14.1 µM [quencher, side channel, partial curve]",–
CN(CCO)C1=NS(=O)(=O)c2cc([N+](=O)[O-])ccc21,"inconclusive: 10 µM [quencher, side channel, partial curve]",–
O=C(O)c1ccc([N+](=O)[O-])c(CS(=O)(=O)c2ccc(Cl)cc2)c1,"inconclusive: 15.8 µM [quencher, side channel, partial curve]",–

Compound,Potency,"activity change, negative = inhibition"
CCCOc1ccc(N/C=C/C(=O)c2cc(OC)c(OC)c(OC)c2)cc1,"inconclusive: 25.1 µM [quencher, side channel, single point]",–
O=C(CCOc1ccccc1)Nc1ccnn1C1CCN(Cc2ccc(O)cc2)CC1,–,inactive: -3.92%
Cc1ccc(C(=O)O)cc1NC(=O)C1=CSCCO1,–,inactive: -6.1%
COc1ccc(OCC(=O)OC(C)CN2CCOCC2)cc1 (configuration not stated),"inconclusive: 4.47 µM [quencher, side channel, single point]",–
CSCc1nnc(NC(=O)c2ccc(S(=O)(=O)N(CC(C)C)CC(C)C)cc2)o1,–,inactive: 0.409%
O=S(=O)(c1ccc(-c2csc(-c3cccnc3)n2)cc1)N1CCOCC1,"inconclusive: 17.8 µM [quencher, side channel, partial curve]",–
COc1ccc(-c2cc(C(=O)OCC(=O)N3CCCC3)c3ccccc3n2)cc1,"inconclusive: 14.1 µM [quencher, side channel, partial curve]",–
CN(CC(=O)Nc1ccccc1Br)C(=O)c1cccc([N+](=O)[O-])c1,"inconclusive: 15.8 µM [quencher, side channel, partial curve]",–
COc1ccc2sc(/C=C/c3ccccc3O)[n+](C)c2c1,"inconclusive: 35.5 µM [quencher, side channel, single point]",–
COC(=O)/C(=C/c1c[nH]c2ccccc12)NC(C)=O,"inconclusive: 35.5 µM [quencher, side channel, single point]",–
CS(=O)(=O)c1ccc(C(=O)OCC(=O)NC2CCS(=O)(=O)C2)cc1[N+](=O)[O-] (configuration not stated),"inconclusive: 15.8 µM [quencher, partial curve]",–
N#CC1(C#N)COC23CCCCC2C1(C#N)C(=N)O3 (configuration not stated),"inconclusive: 28.2 µM [quencher, side channel, partial curve]",–
Cc1cccc(N2CCN(Cc3ccc([N+](=O)[O-])o3)CC2)c1C,"inconclusive: 17.8 µM [quencher, partial curve]",–
Cc1cc(C)n(-c2cc(Cl)ccc2[N+](=O)[O-])n1,"inconclusive: 28.2 µM [quencher, side channel, partial curve]",–
Cc1ccc2c(c1)c(=O)c1c3n2CCN(C(=O)CCl)C3CC1 (configuration not stated),"inconclusive: 22.4 µM [quencher, side channel, partial curve]",–
CC1(C)CC(=O)C2=C(C1)O[C@@]1(CCCCN3C(=O)c4ccccc4C3=O)Cc3ccccc3C2O1,–,inactive: 2.73% [at 11.5 µM]
O=C(CCn1cnc2ccccc2c1=O)Nc1nc(-c2ccc(Br)cc2)cs1,"inconclusive: 0.1 µM [fluorescent, side channel, full curve]",–
COc1ccc(NC(=O)CSc2nnc(Cn3cnc4ccccc43)n2C)cc1,"inconclusive: 100 µM [inhibitor, single point]",–
CC(=O)Nc1ccc2c(c1)nc1n2CCN(C2CCCCC2)C1,"inconclusive: 20 µM [quencher, side channel, single point]",–

# — PubChem BioAssay AID2675 (National Center for Advancing Translational Sciences (NCATS), 2010)
